From ChEMBL document CHEMBL4888484, “Replenishing the malaria drug discovery pipeline: Screening and hit evaluation of the MMV Hit Generation Library 1 (HGL1) against asexual blood stage Plasmodium falciparum ,using a nano luciferase reporter read-out” (2022) come the findings set out here.

Out of some 150,000 compounds screened, about 540 (0.36%) showed an effect of 50% or more. This is one part of the list.

For this test, the system named is Plasmodium falciparum. Briefly: Primary screen in NF54 nanoGlo assay, in single point, at 2uM, 72h; a lower Z score goes with more inhibition. Format: functional, Erythrocyte. The following applies: timepoint 72 hour.
One may read the % Inhibition as the relative decrease from the control value, in per cent. Turning to `Cc1c(NC(=O)Nc2ccc(N3CC(C)OC(C)C3)cc2)cnn1CCO` (configuration not stated), the “% Inhibition” value is on record as -10% and the Z score is on record as 0.99.
The matching figures for `O=S(=O)(c1cccc2nsnc12)N1CC(n2cnnc2C2CC2)C1`: -5% and 0.77.
The corresponding values for `COc1ccnc(C(=O)NCCCC[C@H]2CCCO2)c1` are -10% and 1.95.
For `COc1ccc(C)cc1NC(=O)c1ccc2c(c1)CCCC2`, the “% Inhibition” value was -33% and the Z score stood at 3.84.
The matching figures for `Cc1nccc(-c2ccccc2)c1C(=O)NCc1cc2n(n1)CCCNC2`: -7% and 1.05.
The corresponding values for `COCCN(Cc1cnn(C)c1)C(=O)Cc1ccccn1` are -11% and 1.68.
`CC(C)CNCc1ccc(Br)cc1`: the “% Inhibition” value stood at 6% and the Z score is recorded as -0.79.
The matching figures for `CCNC(=O)N1CC[C@@](F)(C(=O)NCc2ccccc2)C1`: -1% and 0.12.
The matching figures for `COc1cc([C@H]2CC(=O)Nc3c2ncn3-c2cccc(C(F)(F)F)c2)cc2c1OCO2`: -12% and 1.2.
The matching figures for `COC(=O)c1c(CN(C)[C@@H](C)c2cccnc2)nc2ccccc2c1-c1ccccc1`: 1% and -0.21.
For `O=C(NCC(=O)N1CCc2ccccc2C1)N[C@H]1CCc2cn[nH]c2C1`, the “% Inhibition” value is given as -22% and the Z score came to 2.33.
The corresponding values for `CCc1ccc(S(=O)(=O)Nc2ccc(N3CCC(OC)CC3)cc2)s1` are -26% and 3.28.
Consider `Cc1oncc1CNC(=O)Nc1cccs1`, for which the “% Inhibition” value was -12% and the Z score was determined as 1.83.
With `O=C1Nc2ccccc2[C@@H]1Cc1ccsc1`, the “% Inhibition” value is -15% and the Z score came to 1.8.
Regarding `O=C(c1cnccn1)N1CCOc2ccc(CN3CCc4ccccc4C3)cc2C1`, the “% Inhibition” value is -4% and the Z score amounted to 0.48.
On to `COc1cc2c(cc1OC)C(=O)N(Cc1ccccc1)C(=O)C2=O`, for which the “% Inhibition” value is reported as -13% and the Z score was 1.31.
`O=C(CCCn1cncn1)Nc1ccccc1-n1ccnn1`: the “% Inhibition” value is given as -10% and the Z score was 1.24.
The matching figures for `NC(=O)c1c(NC(=O)c2cccc3ccccc23)sc2c1CCCC2`: -22% and 2.94.
The matching figures for `CCc1sc(C(=O)N2CC[C@H](OCCN3CCCCC3)C2)cc1C`: -6% and 0.87.
The corresponding values for `CCOCCCC(=O)N[C@](C)(C#N)C1CCCCC1` are -13% and 1.75.
For the molecule `Cn1cccc1CNC(=O)C1CCN(c2ncnc3[nH]cnc23)CC1`, the “% Inhibition” value is -4% and the Z score was 0.84.
The matching figures for `Cc1ccc2sc(C(=O)N3CC(OCC(=O)N(C)C)C3)cc2c1`: 36% and -4.89.
The corresponding values for `CC(C)[C@H](NC(=O)Nc1cccc(C(F)(F)F)c1)C(=O)O` are -12% and 1.39.
Take `CC(CCc1ccccc1)NC(=O)NC1CCCCC1C` (configuration not stated): the “% Inhibition” value is -3% and the Z score is recorded as 0.44.
For the molecule `C=C(C)CN(CC)S(=O)(=O)c1cnn2ccccc12`, the “% Inhibition” value is -3% and the Z score was 0.4.
The matching figures for `CCCn1nccc1S(=O)(=O)N1CCNCC1`: -7% and 0.96.
As for `CN(Cc1ccncc1)[C@@H](c1ccc(F)cc1)c1ncccn1`, the “% Inhibition” value is given as -18% and the Z score is 1.51.
The corresponding values for `CNC(=O)c1cnc(C=Cc2ccc(OCC(F)F)cc2)[nH]c1=O` are -3% and 0.48.
In the case of `Cc1cnccc1C(=O)N1CCO[C@H]2CCC[C@H]21`, the “% Inhibition” value is recorded as -3% and the Z score is on record as 0.46.
On to `COC(=O)c1c(CN2CCN(c3nccs3)CC2)nc2ccccc2c1-c1ccccc1`, for which the “% Inhibition” value was -13% and the Z score is 1.34.
For the molecule `O=C(COc1ccccc1)NCC(=O)NC1CCCC1`, the “% Inhibition” value is recorded as 4% and the Z score was -0.72.
The corresponding values for `Cn1c(N2CC[C@H](O)C2)nc2ccccc21` are -18% and 2.32.
The corresponding values for `OC1(Cc2cc(-c3ccccc3)no2)CCN(Cc2ccc3nsnc3c2)CC1` are -6% and 0.95.
Consider `O=C(C[C@@H]1NC(=O)NC1=O)NCc1cccnc1Oc1ccc(F)c(F)c1`, for which the “% Inhibition” value is listed as -8% and the Z score is 0.85.
The matching figures for `CCCC[C@H](NC(=O)c1cc(=O)cc(C)[nH]1)c1cccnc1`: -14% and 1.5.
As to `COc1ccc(CN2C(=O)O[C@H]3CN(C(C)=O)C[C@H]32)cc1OC`, the “% Inhibition” value was -1% and the Z score is 0.13.
For the molecule `C[C@@H]1CCO[C@@H]1C(=O)N1CCCC(c2[nH]ncc2CN2CCCC2)C1` (some centres not stated), the “% Inhibition” value was determined as 4% and the Z score is listed as -0.7.
Turning to `Cc1nnc(-c2ccc(S(=O)(=O)N3CCCCC3)o2)o1`, the “% Inhibition” value is -11% and the Z score was determined as 1.48.
Regarding `CNc1ncccc1CN1C[C@H](N(C)C)C[C@H]1CO`, the “% Inhibition” value is 0% and the Z score was -0.04.
The matching figures for `C[C@@]1(C(F)F)CN(C(=O)Nc2ccc(F)cc2N2CCOCC2)CCO1`: -1% and 0.24.
For `c1cc2cc(N[C@H]3CCOC3)cnc2[nH]1`, the “% Inhibition” value was -3% and the Z score is recorded as 0.4.
With `CN1CCC[C@@H]1COc1nc2ccccc2o1`, the “% Inhibition” value is on record as -4% and the Z score was determined as 0.52.
The corresponding values for `O=C(CC1C=CCCC1)N1CCCC(n2ccc(C(F)(F)F)n2)C1` (configuration not stated) are -10% and 1.
Consider `CN(CCc1cccs1)C(=O)Nc1nnc2ccccn12`, for which the “% Inhibition” value came out at 3% and the Z score is reported as -0.59.
The matching figures for `COCCN(CCCOc1ccc(C#N)cc1)CC(=O)N(C)C`: 4% and -0.46.
The matching figures for `O=C1C[C@H](C(=O)N2CCCC2)CN1CCc1c[nH]c2ccc(Cl)cc12`: 0% and -0.05.
The corresponding values for `CO[C@H]1CS(=O)(=O)C[C@@H]1n1cnc2c(F)cccc2c1=O` are 5% and -1.01.
With `Cc1nn(Cc2ccccc2)c(=O)n1-c1ccc(Oc2ccccc2)cc1`, the “% Inhibition” value is reported as -5% and the Z score worked out at 0.79.
The corresponding values for `Cc1ncsc1CCN1CCc2ccc(C(=O)O)cc2C1` are 11% and -1.93.
The matching figures for `CNc1nc(C(N)=O)c(NC(=O)CN2CCCCCC2)s1`: -4% and 0.77.
`CCCn1nnc2cc(S(=O)(=O)N3CCCC[C@H]3C(=O)NCCCN3CCCC3=O)ccc21`: the “% Inhibition” value is -11% and the Z score stood at 1.7.
The corresponding values for `Cc1ccc(-c2noc3nc(C)cc(C(=O)Nc4ccccc4)c23)cc1` are -11% and 1.44.
The matching figures for `COc1cccc(C2(NS(=O)(=O)c3cnnn3C)CCOCC2)c1F`: -1% and 0.11.
The corresponding values for `C[C@@H](c1nnnn1C)N1CCc2cncnc2C1` are -7% and 0.61.
As for `COc1cccc([C@H](C)NC(=O)CC[C@@H]2NC(=O)NC2=O)c1`, the “% Inhibition” value is given as -13% and the Z score was determined as 1.97.
For the molecule `CCN(C)c1nc2cc(Cl)ccc2c2nnc(-c3ccccc3C)n12`, the “% Inhibition” value is given as -6% and the Z score turned out to be 1.03.
